PubChem BioAssay AID1458 (National Center for Advancing Translational Sciences (NCATS), 2008)
Hit rate of the full screen: of about 210,000 compounds, about 5,900 (2.8%) were called active. This list was built around the results that the source calls inconclusive (neither active nor inactive); the mix of calls is not that of the screen. The call rests on the fitted dose curve; in most records, active means well fitted activation curve with a large enough effect; inconclusive means small, poorly fitted or top-dose-only effect; inactive means no such curve, though single readings can be large or run the other way. Potencies beside an inconclusive call are fits to weak or partial responses and may not hold up.

Experiment: qHTS Assay for Enhancers of SMN2 Splice Variant Expression; further: nearly all actives have a fitted effect of over 55% in size
Conditions: HEK293 SMN2-luciferase splicing reporter, luminescence, 30-36 h; series mostly up to 46.1 µM
How it was run: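 HEK293 cells carry an SMN2 […]–luciferase reporter in which exon 7 inclusion puts luciferase in frame. Cells were plated 10-12 h before compound addition, then incubated 30-36 h at 37C. ONE-Glo luminescence was read; sodium butyrate at 4.5 mM final served as control.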
Potency means the concentration at half of the fitted maximal effect; tags describe the fitted curve by direction and shape.

SMILES | Potency
N/C(=N\OC(=O)c1ccc(Cl)c(Cl)c1)c1ccccn1 | active: 14.1 µM
CCOC(=O)C1=C(C)NC(=S)NC1c1ccc(OC(=O)c2ccco2)cc1 (configuration not stated) | inactive
Cc1nc(-c2ccccc2)sc1-c1ccn[nH]1 | active: 7.94 µM
CCOc1ccc(-c2cc(CCCC(=O)NCCC(C)C)no2)cc1 | inactive
CCN1CCN(c2nc(-c3ccccn3)nc3ccccc23)CC1 | inconclusive: 5.01 µM [activator, partial curve, poor fit]
C=CCn1c(COc2ccccc2)nnc1SCC(=O)Nc1ccc2c(c1)OCCO2 | inactive
CCOc1ccc(N(CC(=O)NC2CCCC2)C(=O)CSc2nnc(COc3ccccc3)o2)cc1 | inactive
Cn1c(O)c(C=Nc2ccc(Cc3ccncc3)cc2)c(=O)n(C)c1=O | inconclusive: 0.0126 µM [activator, full curve, poor fit]
CCCC[C@@]1(C2CCCC2)Cc2cc(OCC(=O)O)c(Cl)c(Cl)c2C1=O | inconclusive: 0.0009 µM [activator, full curve, poor fit]
COc1ccc(CCNC(=O)c2nn(C)cc2Cl)cc1 | active: 11.2 µM
COc1cc(OC)cc(C(=O)Nc2ccccc2N2CCOCC2)c1 | inactive
CCOC(=O)c1c(NC(=O)/C=C/C(=O)O)sc(C)c1-c1ccc(C(C)(C)C)cc1 | inactive
O=C(Nc1cccc2ccccc12)NC1CCCc2ccccc21 (configuration not stated) | inconclusive: 0.316 µM [activator, full curve, poor fit]
Cn1cnnc1SCc1ccc(C(=O)N=Nc2c(O)n(C)c3ccccc23)cc1 | inactive
COc1ccc(-c2cc(C(=O)N3CCOCC3)no2)cc1OC | inactive
CC(NC(=O)CNC(=S)N(Cc1cccs1)C1CCCC1)c1ccccc1 (configuration not stated) | inconclusive: 0.0447 µM [activator, full curve, poor fit]
O=C(NCc1cccnc1)c1ccc(Cl)cc1[N+](=O)[O-] | inconclusive: 5.62 µM [activator, single point]
Cc1nc2cc(-n3ccc(=O)cc3)ccc2n1-c1ccccc1 | inconclusive: 22.4 µM [activator, single point]
COc1ccc(/C=N/NC(=O)c2nonc2C)cc1 | inconclusive: 7.08 µM [activator, partial curve, poor fit]
COc1ccccc1NC(=O)Nc1ccc2c(c1)nc(C)n2C | active: 12.6 µM
Cn1c(C(=O)NCc2cccc(Cl)c2)cc2oc3ccccc3c21 | inconclusive: 35.5 µM [activator, single point]
N#CCCn1cc(/C=N/NC(N)=S)c(-c2ccc(Br)cc2)n1 | inactive
Cc1ccccc1NC(=S)NCc1ccco1 | inconclusive: 2.51 µM [activator, partial curve, poor fit]
Cc1cc(C)n(-c2ccc(C(=O)Nc3ccc4c(c3)OCO4)cc2)n1 | inconclusive: 3.16 µM [activator, single point]

SMILES | Potency
CCCCN(CCCC)CCNC(=O)Cc1nc2c(c(=O)[nH]c(=O)n2C)n1C | inconclusive: 12.6 µM [activator, partial curve, poor fit]
CCOc1ccc(N=c2scc(-c3ccccc3)n2CCO)cc1 | inconclusive: 10 µM [activator, partial curve]
O=C(Cc1ccccc1)Nc1c[nH]c(=O)[nH]c1=O | inconclusive: 0.158 µM [activator, full curve, poor fit]
O=C(NC(=S)Nc1ccc2c(c1)C(=O)c1ccccc1C2=O)c1ccc(F)cc1 | active: 11.2 µM
O=C(N=Nc1c(O)n(Cc2ccccc2)c2ccccc12)c1cc2ccccc2cc1O | active: 10 µM
O=C(Cc1ccccc1)Nc1cccc(N2C(=O)C=CC2=O)c1 | inconclusive: 3.16 µM [activator, single point]
O=C(Cn1cnc2ccccc21)OCC(=O)N1CCCc2ccccc21 | inconclusive: 11.2 µM [activator, partial curve, poor fit]
Cc1cccc(N(C(=O)Cn2nnc3ccccc32)C(C(=O)NCc2ccco2)c2ccncc2)c1C (configuration not stated) | inconclusive: 5.62 µM [activator, single point]
Cc1cc(C(=O)Nc2nc3c(s2)CCCC3)no1 | inconclusive: 0.562 µM [activator, full curve]
Cc1ccn2c(C(=O)CSc3ccccc3)c(C)nc2c1 | active: 25.1 µM
COc1ccc2oc(=O)c(-c3nnc(N)s3)cc2c1 | inconclusive: 17.8 µM [activator, partial curve]
CN=c1nc(-c2ccccc2)n(-c2ccccc2)s1 | inconclusive: 14.1 µM [activator, full curve, poor fit]
CCCNC(=O)Cn1nc([N+](=O)[O-])c([N+](=O)[O-])c1C | inconclusive: 11.2 µM [activator, partial curve, poor fit]
NC(=O)C1CCN(C(=O)CCSc2ccccc2)CC1 | inconclusive: 14.1 µM [activator, single point]
Cc1ccc(OCC(=O)Nc2ccc3nn(-c4ccc(C)cc4)nc3c2)cc1 | inconclusive: 3.98 µM [activator, partial curve, poor fit]
Cn1c(CCNC(=O)c2ccco2)nc2cc(NC(=O)c3ccco3)ccc21 | active: 11.2 µM
CN(C)C(=O)c1ccccc1-c1ccccc1 | inconclusive: 22.4 µM [activator, partial curve, poor fit]
Nc1ccc2nc(NC(=O)C3CCCCC3)sc2c1 | active: 14.1 µM
O=C(/C=C(\O)c1ccccc1)c1ccccc1O | inconclusive: 25.1 µM [activator, single point]
COc1cc(C(=O)NCc2ccccc2)cc(Br)c1OC | inactive
O=S(=O)(c1ccccc1)N1CCC2(CCN(Cc3nccs3)CC2)CC1 | inactive
COC(F)(C(=O)Nc1ccc2c(c1)C(=O)NC2=O)C(F)(F)F (configuration not stated) | inconclusive: 25.1 µM [activator, partial curve, poor fit]
COc1ccc(CCNC(=O)CS(=O)(=O)Cc2nc(-c3cccc(Cl)c3)oc2C)cc1OC | inactive
